From PubChem BioAssay AID488969 (Vanderbilt High Throughput Screening Facility, 2010) come the findings set out here.

Whole data set: some 110,000 compounds, median “z-score” near -0.1, cut for the highest 2% near 2. This is one part of the list.

The target of the assay is Metabotropic glutamate receptor 8 (Rattus norvegicus) (UniProt P70579). Put plainly: rat mGluR8 modulators via GIRK flux, primary screen, cell-based, thallium flux, HTS (AID 488969). The settings on record: HEK293 rat mGluR8, GIRK (G protein-gated inwardly rectifying potassium channel) thallium flux, FluoZin2; at 10 µM; stronger effect = higher value; submaximal glutamate (EC20) added with thallium.
UniProt P70579, sequence (P70579 whole entry, looked up): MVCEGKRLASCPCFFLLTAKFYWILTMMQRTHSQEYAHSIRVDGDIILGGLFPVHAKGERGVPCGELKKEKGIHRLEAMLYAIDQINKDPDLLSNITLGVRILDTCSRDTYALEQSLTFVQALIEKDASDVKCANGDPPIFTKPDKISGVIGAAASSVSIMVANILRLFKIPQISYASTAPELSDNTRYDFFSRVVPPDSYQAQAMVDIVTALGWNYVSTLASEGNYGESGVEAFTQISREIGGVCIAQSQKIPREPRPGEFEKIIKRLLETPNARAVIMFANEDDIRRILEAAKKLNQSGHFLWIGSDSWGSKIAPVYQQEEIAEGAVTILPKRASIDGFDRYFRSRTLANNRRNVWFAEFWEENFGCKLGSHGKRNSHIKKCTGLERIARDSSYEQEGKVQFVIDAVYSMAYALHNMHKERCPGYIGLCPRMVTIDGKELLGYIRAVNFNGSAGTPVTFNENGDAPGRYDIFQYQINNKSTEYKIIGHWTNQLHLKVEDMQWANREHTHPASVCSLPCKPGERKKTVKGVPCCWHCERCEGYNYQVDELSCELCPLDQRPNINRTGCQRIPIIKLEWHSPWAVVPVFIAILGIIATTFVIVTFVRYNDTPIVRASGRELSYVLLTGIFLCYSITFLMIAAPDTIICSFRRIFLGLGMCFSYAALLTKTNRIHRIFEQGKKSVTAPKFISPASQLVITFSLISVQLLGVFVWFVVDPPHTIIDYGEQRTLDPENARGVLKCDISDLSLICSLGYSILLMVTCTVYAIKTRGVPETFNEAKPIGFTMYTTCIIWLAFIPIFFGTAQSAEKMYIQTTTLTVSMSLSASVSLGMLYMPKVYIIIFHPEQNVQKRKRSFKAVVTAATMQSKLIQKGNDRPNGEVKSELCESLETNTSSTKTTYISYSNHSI
As for `O=C(Cn1cnc2sc(-c3ccccc3)cc2c1=O)NCCc1ccccc1`, the z-score was -0.863.

Turning to `COc1ccc(CNC(=O)Nc2cccc3ccccc23)cc1`, the z-score was 0.426.

On to `O=C(c1cc(-c2ccc3c(c2)OCO3)on1)N1CCN(c2ccc(F)cc2)CC1`, for which the z-score was -0.0803.

As to `CC(C)N(Cc1nc(-c2ccccc2)no1)C(=O)Cc1ccccc1`, the z-score was -0.833.

Consider `Cc1ccc(CN2C(=O)C3CCCN3c3ccc(S(=O)(=O)N4CCOCC4)cc32)cc1` (centres undefined), for which the z-score was -0.425.

Take `CCCCn1nc2cc(C(=O)NCc3ccc4c(c3)OCO4)ccc2c1OCC`: the z-score was -0.318.

Compound `CC(C)(C)NC(=O)c1ccc2nccnc2c1` showed a z-score of 0.232.

`Cc1cccc(C)c1NC(=O)CNc1ncnc2sc(C)c(C)c12` registered a z-score of 0.018.

As for `CCC(C)C(NC=C1C(=O)OC(C)(C)OC1=O)C(=O)O` (centres undefined), the z-score turned out to be 1.28.

With `COc1ccc(C(=O)COC(=O)c2ccc(NC(C)=O)cc2)cc1[N+](=O)[O-]`, the z-score stood at 0.099.

As for `COc1ccc(OC)c(NC(=S)NN2CCOCC2)c1`, the z-score is -0.00883.

`Cc1ccc2nc(N(CCCN(C)C)C(=O)c3sc4ccccc4c3Cl)sc2c1`: the z-score was -0.239.

Compound `CC1CCN(CCOc2ccc(OCc3ccccc3)cc2)CC1` showed a z-score of 0.306.

For `Cc1ccc(C)c(NC(=O)CSc2nc3ccc(N4C(=O)c5ccccc5C4=O)cc3s2)c1`, the z-score is -0.109.

With `COc1ccccc1NC(=O)N(C1CCCC1)C1CCN(C(C)=O)CC1`, the z-score was -0.237.

On to `C#CC[N+]1(CC#Cc2ccccc2)CCCC1`, for which the z-score was -0.117.

For the compound `C/C(=N\NC(=O)c1cccc(C)c1)c1ccc(N2CCOCC2)cc1`, the z-score is -0.0654.

As for `CCCCNC(=S)N/N=C1\CCCCc2ccccc21`, the z-score stood at 2.17.

For `CCN(CC)S(=O)(=O)c1ccc(N/N=C/c2ccc(OC)c(OC)c2OC)nc1`, the z-score was -0.0561.

`CC(C)c1nnc(NC(=O)c2cccnc2)s1` registered a z-score of 0.786.

For the compound `CCCCCn1c(SCc2ccncc2)nc2cc(C(=O)NCc3ccco3)ccc2c1=O`, the z-score is -0.248.

As for `CCOC(=O)c1cn(Cc2ccccc2)nn1`, the z-score is -0.0725.

The compound `CC(C)c1nc2cc3ccccc3cc2[nH]1` gave a z-score of 0.396.

`CC(=O)NC(Cc1c[nH]c2ccccc12)C(=O)Nc1ccc2c(c1)OCO2` (centres undefined): the z-score was -0.54.

In the case of `CC(=O)Oc1c(Cl)cc(Cl)cc1/C=C/c1ccc2ccccc2n1`, the z-score is -0.16.

In the case of `Cc1cc(C)c2c(c1)cc(C)c1nnc(SCC(=O)Nc3ccc(S(=O)(=O)N4CCCCC4)cc3)n12`, the z-score is -0.14.

As for `CC(C)(C)NC(=O)NC(=O)COC(=O)CCCc1c[nH]c2ccccc12`, the z-score is -0.951.

The compound `CCOC(=O)c1c(N)n[nH]c1-c1ccc(OC)cc1` returned a z-score of 0.226.

`COc1ccc(S(=O)(=O)Cc2ccc(C(=O)N3CCN(c4ncccn4)CC3)o2)cc1` returned a z-score of 0.106.

Compound `CC(=O)Nc1ccc(Nc2c([N+](=O)[O-])cc(S(C)(=O)=O)cc2[N+](=O)[O-])cc1` showed a z-score of 0.252.

For `CCOC(=O)C1C2C=CC3(CN(c4ccc(Cl)c(F)c4)C(=O)C13)O2` (centres undefined), the z-score came to 0.0995.

For the compound `O=C(O)CSc1c(-c2ccccc2)[nH]c2ccccc12`, the z-score was 0.593.

With `O=S1(=O)C=C(SCc2cccc(Cl)c2)Nc2ccccc21`, the z-score was -0.623.

As to `CC1CCc2c(sc3nc(CSc4ncn[nH]4)[nH]c(=O)c23)C1` (centres undefined), the z-score was -0.17.

With `O=C(OCC#CCSc1nnc(-c2ccccc2)o1)c1cccs1`, the z-score was -0.745.

Regarding `O=C(CN(c1ccc(F)cc1)S(=O)(=O)c1ccc2c(c1)OCCO2)Nc1ccccc1`, the z-score is -0.276.

In the case of `COC(=O)C1=C(Nc2ccc(C)cc2)C=C(C)C(C(=O)OC)C1c1ccc(F)cc1` (centres undefined), the z-score is -0.0838.

As for `CCN1CC2=C(OC(N)=C(C#N)C2c2ccccc2)/C(=C\c2ccccc2)C1` (centres undefined), the z-score was -0.777.

For the compound `COc1ccccc1N1CCN(C(=O)/C=C/c2ccccc2)CC1`, the z-score is -0.731.

Take `O=C(NCc1ccco1)Nc1ccc(Br)cc1`: the z-score is -0.466.

In the case of `Cc1ccc(CNC(=O)/C(C#N)=C/c2ccc(C)s2)cc1`, the z-score was -0.213.

With `CSc1nccc(Nc2ccccc2)c1C#N`, the z-score was -0.557.

For the compound `O=C(Nc1ccc(Cl)cc1C(F)(F)F)c1ccccc1`, the z-score is -0.276.

As for `CCc1c(C(=O)N2CCN(c3ccccc3F)CC2)[nH]c(C)c1C(C)=O`, the z-score is 0.0803.

With `Cc1cccc(C(=O)Nc2nnc(Cc3c[nH]c4ccccc34)s2)c1`, the z-score is -0.0878.

As to `CN(C)c1ncc(S(=O)(=O)c2ccccc2)c(-c2ccccc2Cl)n1`, the z-score is -0.226.

Regarding `O=C(OCc1nnc(-c2ccccc2)o1)c1cc(=O)c2ccccc2o1`, the z-score was -0.00878.

Turning to `CS(=O)(=O)N(CC(=O)NCc1ccccc1Cl)Cc1ccccc1`, the z-score came out at 0.17.

In the case of `CCOc1ccc(C2CC(c3cccc(C)c3)n3ncnc3N2)cc1` (centres undefined), the z-score was -0.178.

For `Cc1[nH]c2ccccc2c1/C=N\NC(=O)Cn1nnc(-c2ccccc2)n1`, the z-score was -0.191.

On to `COc1ccccc1CNC(=O)c1ccc(OCC2CCCO2)cc1` (centres undefined), for which the z-score is -0.139.

For `COc1ccc2oc(C)c(C(=O)c3ccc([N+](=O)[O-])cc3)c2c1`, the z-score stood at 0.0892.

`CC(C)COCC1CC2(CC(C)(c3csc(N)n3)OC2=O)C(=O)O1` (centres undefined) showed a z-score of 0.293.

In the case of `O=C(COC(=O)C1CCC(=O)N1)Nc1ccc(Br)cc1` (centres undefined), the z-score is 0.343.

`CCCNC(=O)Nc1ccccc1C(=O)Nc1ccc(OC)cc1`: the z-score was -0.22.

With `CC(=O)Nc1ccc(-n2cnnn2)cc1`, the z-score is -0.324.

For the compound `COC(=O)CNC(c1ccccc1)c1cc(Br)ccc1NC(=O)OCc1ccccc1` (centres undefined), the z-score is -0.324.

Compound `Cc1noc(C)c1C(=O)N1CCCC1` yielded a z-score of 0.0937.

Compound `O=C(Cn1cnc2sc(-c3ccccc3)cc2c1=O)NCc1ccccc1` yielded a z-score of 0.0158.

For `COc1ccc2c(c1)C1NC(=S)N[C@@](C)(O2)C1C(=O)Nc1ccccc1` (some centres undefined), the z-score was -0.449.

With `O=C1NC2(CCCCC2)C(=O)N1CCS(=O)(=O)Oc1ccccc1`, the z-score is -0.462.

Regarding `CS(=O)(=O)c1ccc2nc(NC(=O)Nc3cccc(Cl)c3)sc2c1`, the z-score came out at 0.135.

Consider `S=c1[nH]nc(COc2ccccc2)n1/N=C/c1cccs1`, for which the z-score worked out at 0.649.

Turning to `O=C(NS(=O)(=O)c1ccccc1)c1ccccc1`, the z-score is -0.314.

On to `NNC(=O)COc1ccc(-c2n[nH]c(C(F)(F)F)c2-c2ccc(Br)cc2)c(O)c1`, for which the z-score was -0.252.

With `C/C(Cn1nc([N+](=O)[O-])cc1C)=N\NC(=O)COc1ccc(Cl)cc1Cl`, the z-score is -0.14.

As for `CC(Oc1ccc(Cl)cc1)c1ccnn1S(=O)(=O)c1ccc(Cl)cc1` (centres undefined), the z-score is -0.157.

`C=CCNC(=O)CCCCCNS(=O)(=O)c1ccc(OC)cc1`: the z-score was -0.0366.

Compound `O=C(CSc1nnc(-c2cccnc2)n1C1CCCCC1)NC1CCCCC1` had a z-score of 0.178.

For the compound `O=C(NCc1ccccc1)c1ccc2c(c1)C(=O)N(CC1CCCO1)C2=O` (centres undefined), the z-score was 0.824.

As to `O=C(COC(=O)COc1ccc2ccccc2c1)Nc1cc(C(F)(F)F)ccc1N1CCOCC1`, the z-score was -0.0337.

Regarding `Cc1cc(C)nc(-n2nc(C)c3c(C(F)(F)F)cc(=O)[nH]c32)n1`, the z-score worked out at 0.172.

Consider `Cn1c(=O)oc2cc(S(=O)(=O)N3CCOCC3)ccc21`, for which the z-score is 0.0252.

For the compound `Cc1ccc(Nc2nnc(SCC(=O)Nc3cccc(S(=O)(=O)NC4=NCCCCC4)c3)s2)cc1`, the z-score was -0.751.

Regarding `Cc1n[nH]c(C)c1Sc1ccccc1N=Cc1cc(Cl)cc([N+](=O)[O-])c1O`, the z-score was -1.42.

Consider `CC(=O)N(C(C)=O)c1ccc2nc(C)[nH]c(=O)c2c1`, for which the z-score was -0.244.

`COc1cc(/C=N/Nc2nc3c(c(=O)n(C)c(=O)n3C)n2Cc2ccccc2)ccc1OC(=O)c1ccco1` had a z-score of 0.0129.

In the case of `COc1ccccc1N1CCN(C(c2ccc(C)cc2)c2nnnn2C(C)C)CC1` (centres undefined), the z-score is -0.415.

On to `OC(c1cccs1)(c1cccs1)C1C[N+]2(CF)CCC1CC2` (centres undefined), for which the z-score is -0.36.

As for `O=C(NCCO)C1CCN(S(=O)(=O)c2ccc(F)cc2)CC1`, the z-score was -0.466.

Consider `CCOc1cc(C(=O)Nc2cnccn2)cc(OCC)c1OCC`, for which the z-score is -0.438.

In the case of `COc1ccc(CCN(C)C(=O)N2CCOCC2)cc1OC`, the z-score came out at 0.0315.

`COc1ccc2cc(C3(C)NC(=O)N(CC(=O)Nc4c(C)n(C)n(-c5ccccc5)c4=O)C3=O)ccc2c1` (centres undefined) came in with a z-score of 0.117.

As to `COc1ccc(-c2nc3ccccc3c(=O)n2CCOc2ccc(C)cc2C)cc1`, the z-score is -0.182.

Turning to `c1ccc(CCc2nc(-c3ccccn3)no2)cc1`, the z-score was found to be 1.29.

Compound `COC(=O)c1ccc2c(=O)n(CCCCCC(=O)NCc3ccccc3)c(=O)[nH]c2c1` returned a z-score of 0.645.

As to `O=C(Cc1cccs1)Nc1nc2ccccc2s1`, the z-score is -0.401.

As to `O=C(CNS(=O)(=O)c1ccc(Br)s1)N1CCC(N2CCCCC2)CC1`, the z-score was -0.0225.

For `O=C(COC(=O)c1cc(-c2cccnc2)nc2ccccc12)Nc1ccc(F)cc1F`, the z-score is -0.565.

The compound `CCC(C)(NC(=O)c1ccccn1)C(=O)NC1CCCCC1` (centres undefined) registered a z-score of 0.115.

Consider `O=C(C1CCCN(S(=O)(=O)c2cccc3nonc23)C1)N1CCN(c2cccc(Cl)c2)CC1` (centres undefined), for which the z-score came out at 0.658.

As for `Cc1cccc(CSCCNC(=O)c2ccc(N(C)S(=O)(=O)c3ccccc3)cc2)c1`, the z-score is -0.463.

In the case of `CCCN1CCC(=NNC(=O)CSc2cc(C)c(Br)cc2C)CC1`, the z-score is -0.165.

Regarding `CCNC(=O)Cn1c(=O)c2c(ncn2Cc2ccccc2)n(Cc2ccccc2)c1=O`, the z-score was -0.301.

As for `CCCCC1CC(CSC(=N)N)OC1=O` (centres undefined), the z-score was 0.732.

Turning to `Cc1cccc(C)c1NC(=S)N(Cc1ccco1)C1CCN(C(C)C)CC1`, the z-score was -0.133.

`CC(C)n1nc(C(=O)OCn2nnc3ccccc3c2=O)c2ccccc2c1=O`: the z-score was -0.698.

Take `O=C(NCc1cccs1)c1ccc(CS(=O)(=O)c2ccc(Cl)cc2)o1`: the z-score is -0.408.

Turning to `CC(C)C1C(C#N)=C(N)Oc2n[nH]c(-c3ccccc3)c21` (centres undefined), the z-score is -0.771.

`Cc1ccc(CCNC(=O)c2coc3nc4ccccc4nc23)cc1` had a z-score of 0.0587.

Regarding `Nn1cnnc1SC1CCCCC1NS(=O)(=O)c1ccccc1` (centres undefined), the z-score is -0.0644.

As to `CCCN(CCC)CCNC(=O)Cn1cnc2sc(C)c(S(=O)(=O)N3CCOCC3)c2c1=O`, the z-score was found to be 0.803.

As to `CCOC(=O)C(=O)Nc1ccc(S(=O)(=O)Nc2ncccn2)cc1`, the z-score was -0.0325.

With `COC(=O)c1c(NC(=O)C2Cc3ccccc3C(=O)O2)sc2c1CCCC2` (centres undefined), the z-score was -0.232.

The compound `Cc1ccc(OC(=S)Nc2ccc(O)cc2)cc1` yielded a z-score of 0.0849.

For the compound `Cc1ccc([N+](=O)[O-])cc1NC(=O)c1ccc(CSc2ccccc2)cc1`, the z-score is -0.433.

Take `COc1ccc(/C=C/C2=NC(=C\N(C)C)/C(=O)O2)cc1`: the z-score was -0.643.

On to `CO/N=C(/CNC(=O)c1ccc(Cl)cc1Cl)c1ccc(Cl)cc1`, for which the z-score is -0.178.

In the case of `O=C(Nc1ccc(OCC(=O)N2CCC(Cc3ccccc3)CC2)cc1)c1ccco1`, the z-score turned out to be 1.42.
